In the supplement of paper PMC10369915 one finds enrichment score data, which are given here for 19 molecules.

This is one part of the list. Rule as the data show it: active = 3.2 or more and inactive = the rest. Most of these values are background signal.
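Also: displayed peptides selected on beads carrying the immobilized SH2 domain, with library peptides lacking any tyrosine serving as negative controls.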

One experiment has as its target SHP2 C-SH2 domain E139D. As to the kind of experiment: enrichment score (SH2-bound / input frequency) (ratio); bacterial display of known human phosphotyrosine sites (pTyr-Var adds point mutants) read by sequencing; higher = stronger binding; tyrosines were phosphorylated by kinases first. Conditions: peptide library: pTyr-Var.
For the molecule SVVVTYEPPEV [TP53_Y220_P219T], the enrichment score is inactive: 0.971.
For the molecule SVVVPYEPTEV [TP53_Y220_P223T], the enrichment score is inactive: 0.785.
For SVVVPYEPPDV [TP53_Y220_E224D], the enrichment score is inactive: 0.78.
On to SVTCTSSPALN [TP53_Y126_Y126S], for which the enrichment score was inactive: 0.647.
Regarding RVVVPYEPPEV [TP53_Y220_S215R], the enrichment score is inactive: 0.848.
With SVVVPYGPPEV [TP53_Y220_E221G], the enrichment score is inactive: 0.773.
As to SVVVPYETPEV [TP53_Y220_P222T], the enrichment score is inactive: 0.923.
As to SVTCTCSPALN [TP53_Y126_Y126C], the enrichment score is inactive: 0.913.
Consider SVVVPYAPPEV [TP53_Y220_E221A], for which the enrichment score is inactive: 0.931.
On to SVVVPYEPPVV [TP53_Y220_E224V], for which the enrichment score is inactive: 0.827.
For the molecule SVVVRYEPPEV [TP53_Y220_P219R], the enrichment score is inactive: 0.906.
With SLVVPYEPPEV [TP53_Y220_V216L], the enrichment score was inactive: 0.892.
Regarding SVTCTNSPALN [TP53_Y126_Y126N], the enrichment score is inactive: 0.816.
As to KVVVPYEPPEV [TP53_Y220_S215K], the enrichment score is inactive: 0.99.
On to NVVVPYEPPEV [TP53_Y220_S215N], for which the enrichment score was inactive: 0.826.
On to SMVVPYEPPEV [TP53_Y220_V216M], for which the enrichment score was inactive: 0.788.
Same read-out and setting: then SEVVPYEPPEV [TP53_Y220_V216E], with inactive: 0.705.
On the same count and under the same terms, to SVVVPYEPAEV [TP53_Y220_P223A] belongs inactive: 0.672; to SVTCTHSPALN [TP53_Y126_Y126H], inactive: 0.888.

The next experiment deals with SHP2 C-SH2 domain wild-type. The experiment is described as above. To be noted: peptide library: pTyr-Var.
In the case of SVVVTYEPPEV [TP53_Y220_P219T], the enrichment score was inactive: 1.1.
Same read-out and setting: then SVVVPYEPTEV [TP53_Y220_P223T], with inactive: 1.05; and SVVVPYEPPDV [TP53_Y220_E224D], with inactive: 0.857; and SVTCTSSPALN [TP53_Y126_Y126S], with inactive: 1.03.
RVVVPYEPPEV [TP53_Y220_S215R]: the enrichment score was inactive: 0.874.
SVVVPYGPPEV [TP53_Y220_E221G]: the enrichment score is inactive: 0.669.
As for SVVVPYETPEV [TP53_Y220_P222T], the enrichment score was inactive: 0.796.
The same measure, in the same setting: to SVTCTCSPALN [TP53_Y126_Y126C] belongs inactive: 1.15; to SVVVPYAPPEV [TP53_Y220_E221A], inactive: 0.803.
Same read-out and setting: then SVVVPYEPPVV [TP53_Y220_E224V], with inactive: 0.693; and SVVVRYEPPEV [TP53_Y220_P219R], with inactive: 0.841; and SLVVPYEPPEV [TP53_Y220_V216L], with inactive: 0.976.
Same read-out and setting: then SVTCTNSPALN [TP53_Y126_Y126N], with inactive: 0.969; and KVVVPYEPPEV [TP53_Y220_S215K], with inactive: 0.765; and NVVVPYEPPEV [TP53_Y220_S215N], with inactive: 0.812.
Turning to SMVVPYEPPEV [TP53_Y220_V216M], the enrichment score was inactive: 0.867.
As to SEVVPYEPPEV [TP53_Y220_V216E], the enrichment score is inactive: 0.514.
The same measure, in the same setting: to SVVVPYEPAEV [TP53_Y220_P223A] belongs inactive: 0.639.
Consider SVTCTHSPALN [TP53_Y126_Y126H], for which the enrichment score is inactive: 1.01.

In another experiment the target is SHP2 N-SH2 domain L43F. The description is as above. To be noted: peptide library: pTyr-Var.
With SVVVTYEPPEV [TP53_Y220_P219T], the enrichment score was inactive: 1.05.
With SVVVPYEPTEV [TP53_Y220_P223T], the enrichment score is inactive: 0.993.
With SVVVPYEPPDV [TP53_Y220_E224D], the enrichment score was inactive: 0.792.
Regarding SVTCTSSPALN [TP53_Y126_Y126S], the enrichment score was inactive: 0.735.
As for RVVVPYEPPEV [TP53_Y220_S215R], the enrichment score was inactive: 0.775.
In the case of SVVVPYGPPEV [TP53_Y220_E221G], the enrichment score is inactive: 0.667.
For SVVVPYETPEV [TP53_Y220_P222T], the enrichment score was inactive: 0.855.
As for SVTCTCSPALN [TP53_Y126_Y126C], the enrichment score is inactive: 1.04.
For SVVVPYAPPEV [TP53_Y220_E221A], the enrichment score is inactive: 0.972.
Consider SVVVPYEPPVV [TP53_Y220_E224V], for which the enrichment score was inactive: 0.868.
Consider SVVVRYEPPEV [TP53_Y220_P219R], for which the enrichment score is inactive: 0.949.
Still for that read-out and setting: then SLVVPYEPPEV [TP53_Y220_V216L], with inactive: 0.81.
Still for that read-out and setting: to SVTCTNSPALN [TP53_Y126_Y126N] belongs inactive: 0.758; to KVVVPYEPPEV [TP53_Y220_S215K], inactive: 0.878.
Turning to NVVVPYEPPEV [TP53_Y220_S215N], the enrichment score was inactive: 0.824.
Turning to SMVVPYEPPEV [TP53_Y220_V216M], the enrichment score was inactive: 0.698.
Consider SEVVPYEPPEV [TP53_Y220_V216E], for which the enrichment score was inactive: 0.564.
On to SVVVPYEPAEV [TP53_Y220_P223A], for which the enrichment score was inactive: 0.755.
Same read-out and setting: then SVTCTHSPALN [TP53_Y126_Y126H], with inactive: 0.778.

A further experiment deals with SHP2 N-SH2 domain T42A. The description is as above. Conditions: peptide library: pTyr-Var.
For SVVVTYEPPEV [TP53_Y220_P219T], the enrichment score is inactive: 0.94.
Turning to SVVVPYEPTEV [TP53_Y220_P223T], the enrichment score is inactive: 1.01.
With SVVVPYEPPDV [TP53_Y220_E224D], the enrichment score is inactive: 0.662.
The same measure, in the same setting: to SVTCTSSPALN [TP53_Y126_Y126S] belongs inactive: 0.67; to RVVVPYEPPEV [TP53_Y220_S215R], inactive: 0.864; to SVVVPYGPPEV [TP53_Y220_E221G], inactive: 0.699.
Take SVVVPYETPEV [TP53_Y220_P222T]: the enrichment score was inactive: 0.77.
For the molecule SVTCTCSPALN [TP53_Y126_Y126C], the enrichment score was inactive: 0.825.
Same read-out and setting: to SVVVPYAPPEV [TP53_Y220_E221A] belongs inactive: 0.659; to SVVVPYEPPVV [TP53_Y220_E224V], inactive: 0.795; to SVVVRYEPPEV [TP53_Y220_P219R], inactive: 0.91.
Still for that read-out and setting: to SLVVPYEPPEV [TP53_Y220_V216L] belongs inactive: 0.839; to SVTCTNSPALN [TP53_Y126_Y126N], inactive: 0.548.
As for KVVVPYEPPEV [TP53_Y220_S215K], the enrichment score was inactive: 0.604.
For NVVVPYEPPEV [TP53_Y220_S215N], the enrichment score was inactive: 0.837.
As to SMVVPYEPPEV [TP53_Y220_V216M], the enrichment score is inactive: 0.655.
As for SEVVPYEPPEV [TP53_Y220_V216E], the enrichment score is inactive: 0.411.
On the same count and under the same terms, to SVVVPYEPAEV [TP53_Y220_P223A] belongs inactive: 0.793.
Take SVTCTHSPALN [TP53_Y126_Y126H]: the enrichment score was inactive: 0.651.

The next experiment concerns the target SHP2 N-SH2 domain T52S. Described as above. To be noted: peptide library: pTyr-Var.
Regarding SVVVTYEPPEV [TP53_Y220_P219T], the enrichment score is inactive: 0.919.
For the molecule SVVVPYEPTEV [TP53_Y220_P223T], the enrichment score is inactive: 1.24.
For SVVVPYEPPDV [TP53_Y220_E224D], the enrichment score is inactive: 0.771.
Consider SVTCTSSPALN [TP53_Y126_Y126S], for which the enrichment score was inactive: 0.596.
For RVVVPYEPPEV [TP53_Y220_S215R], the enrichment score is inactive: 0.863.
With SVVVPYGPPEV [TP53_Y220_E221G], the enrichment score is inactive: 0.77.
For the molecule SVVVPYETPEV [TP53_Y220_P222T], the enrichment score was inactive: 0.84.
Take SVTCTCSPALN [TP53_Y126_Y126C]: the enrichment score is inactive: 1.16.
In the case of SVVVPYAPPEV [TP53_Y220_E221A], the enrichment score was inactive: 0.798.
Take SVVVPYEPPVV [TP53_Y220_E224V]: the enrichment score is inactive: 0.857.
On the same count and under the same terms, to SVVVRYEPPEV [TP53_Y220_P219R] belongs inactive: 1.06; to SLVVPYEPPEV [TP53_Y220_V216L], inactive: 0.913.
SVTCTNSPALN [TP53_Y126_Y126N]: the enrichment score was inactive: 0.85.
Regarding KVVVPYEPPEV [TP53_Y220_S215K], the enrichment score was inactive: 1.22.
NVVVPYEPPEV [TP53_Y220_S215N]: the enrichment score is inactive: 0.838.
As for SMVVPYEPPEV [TP53_Y220_V216M], the enrichment score is inactive: 0.736.
For the molecule SEVVPYEPPEV [TP53_Y220_V216E], the enrichment score was inactive: 0.57.
Same read-out and setting: to SVVVPYEPAEV [TP53_Y220_P223A] belongs inactive: 0.71.
Consider SVTCTHSPALN [TP53_Y126_Y126H], for which the enrichment score was inactive: 0.715.

The target in a further experiment is SHP2 N-SH2 domain wild-type. The description is as above. To be noted: peptide library: pTyr-Var.
For SVVVTYEPPEV [TP53_Y220_P219T], the enrichment score is inactive: 0.87.
For the molecule SVVVPYEPTEV [TP53_Y220_P223T], the enrichment score is inactive: 1.02.
On to SVVVPYEPPDV [TP53_Y220_E224D], for which the enrichment score was inactive: 0.95.
For the molecule SVTCTSSPALN [TP53_Y126_Y126S], the enrichment score was inactive: 1.28.
Still for that read-out and setting: then RVVVPYEPPEV [TP53_Y220_S215R], with inactive: 0.84.
Take SVVVPYGPPEV [TP53_Y220_E221G]: the enrichment score was inactive: 0.745.
On to SVVVPYETPEV [TP53_Y220_P222T], for which the enrichment score was inactive: 1.07.
Same read-out and setting: then SVTCTCSPALN [TP53_Y126_Y126C], with inactive: 1.43; and SVVVPYAPPEV [TP53_Y220_E221A], with inactive: 0.82; and SVVVPYEPPVV [TP53_Y220_E224V], with inactive: 0.931.
As to SVVVRYEPPEV [TP53_Y220_P219R], the enrichment score is inactive: 0.909.
SLVVPYEPPEV [TP53_Y220_V216L]: the enrichment score is inactive: 0.945.
SVTCTNSPALN [TP53_Y126_Y126N]: the enrichment score is inactive: 1.28.
As for KVVVPYEPPEV [TP53_Y220_S215K], the enrichment score is inactive: 1.12.
For NVVVPYEPPEV [TP53_Y220_S215N], the enrichment score was inactive: 0.901.
On to SMVVPYEPPEV [TP53_Y220_V216M], for which the enrichment score is inactive: 0.759.
As to SEVVPYEPPEV [TP53_Y220_V216E], the enrichment score is inactive: 0.591.
Consider SVVVPYEPAEV [TP53_Y220_P223A], for which the enrichment score was inactive: 0.879.
In the case of SVTCTHSPALN [TP53_Y126_Y126H], the enrichment score is inactive: 1.12.
